Test results from PubChem BioAssay.
Inconclusive results, whose numbers are uncertain, are shown with a selection of clear calls. Activity calls are given as the source filed them.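 The calls were made as follows: active = thallium entry rate above the same plate's blocked-transporter control wells by more than 3 SD; inconclusive = the two repeat wells disagree; inactive = the rest.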

assay: FluoZin2 fluorescence counter-screen of MLSMR hits on KCC2-expressing cells (AID 1714); details: HEK293-KCC2 + bumetanide/ouabain, at 10 µM, hits give high values;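 also: raw slope of fluorescence over initial fluorescence between 10 and 20 s after thallium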
Summary of the method: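 material = KCC2-expressing HEK cells | reagent = thallium stimulus | compound dosing = 10 µM single dose | schedule = cells overnight at 37 °C, FluoZin2-AM dye loading 48 min | technique = kinetic FluoZin2 fluorescence, ex 480/em 540 nm | evaluation = normalized thallium flux slope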

Row | SMILES | normalized thallium flux
1 | Cc1nnc(SCC(=O)NNC(=O)c2ccco2)n1-c1cccc(Cl)c1 | inconclusive: 0.00758
2 | O=C(CSc1nnc(Cc2ccccc2)o1)c1ccc(F)cc1 | inconclusive: 0.00554
3 | S=c1nc(Cc2ccc(Cl)cc2)[nH]c2ccccc12 | active: 0.153
4 | CCOC(=O)C1=C(CC)Nc2ccccc2N/C1=N\S(=O)(=O)c1cc(Br)ccc1Br | inconclusive: 0.00604
5 | CCCCn1c(=S)[nH]c2ncccc2c1=O | active: 0.12
6 | CC(=O)c1nc2ccccc2n1S(=O)(=O)c1ccc(C)cc1 | inconclusive: 0.00806
7 | O=C(O)c1ccc(NC(=S)NC(=O)c2cccc(COc3ccccc3)c2)cc1 | inconclusive: 0.00877
8 | COc1ccc(C2C(C(N)=O)=C(C)Nc3nc(-c4ccccc4)nn32)cc1OC (stereo unspecified) | inconclusive: 0.00536
9 | CC(C)(C)c1ccc(/C=N/NC(=S)Nc2cccnc2)cc1 | active: 0.0316
10 | CC1Cc2ccccc2N1C(=O)CSc1ncc(-c2ccc(F)cc2)n1C (stereo unspecified) | inactive: 0.00359
11 | O=C(NC(=S)Nc1ccc(CN2CCCCC2)cc1)c1ccco1 | active: 0.0349
12 | CSc1sc(-c2n[nH]c(=S)n2C)c2c1C=CCC2 | active: 0.0149
13 | CCN(c1cccc(C)c1)S(=O)(=O)c1cccc2nsnc12 | inconclusive: 0.00332
14 | CCN(Cc1ccccc1)C(=O)c1cc(COc2c(F)cccc2F)on1 | inactive: 0.00452
15 | O=C(Cn1cnc2ccccc2c1=O)Nc1nnc(SCc2ccccc2)s1 | inactive: 0.00669
16 | Cc1cccc(N/C(=N\S(=O)(=O)c2ccccc2)C(F)(F)F)c1 | inconclusive: 0.00549
